# The campaign covered roughly 310,000 compounds. About 14,000 (4.5%) showed an effect of 50% or more. Effects have a minus sign here. Some of the results follow.
# Biological target: human ether-à-go-go-related gene (hERG) potassium channel (human, UniProt Q12809)
# Experiment: primary screen, population patch clamp on CHO cells stably expressing hERG
# 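Note: peak tail current of the secondary pulse compared with the same well before compound.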
# Chain of human ether-à-go-go-related gene (hERG) potassium channel (Q12809 whole entry, looked up): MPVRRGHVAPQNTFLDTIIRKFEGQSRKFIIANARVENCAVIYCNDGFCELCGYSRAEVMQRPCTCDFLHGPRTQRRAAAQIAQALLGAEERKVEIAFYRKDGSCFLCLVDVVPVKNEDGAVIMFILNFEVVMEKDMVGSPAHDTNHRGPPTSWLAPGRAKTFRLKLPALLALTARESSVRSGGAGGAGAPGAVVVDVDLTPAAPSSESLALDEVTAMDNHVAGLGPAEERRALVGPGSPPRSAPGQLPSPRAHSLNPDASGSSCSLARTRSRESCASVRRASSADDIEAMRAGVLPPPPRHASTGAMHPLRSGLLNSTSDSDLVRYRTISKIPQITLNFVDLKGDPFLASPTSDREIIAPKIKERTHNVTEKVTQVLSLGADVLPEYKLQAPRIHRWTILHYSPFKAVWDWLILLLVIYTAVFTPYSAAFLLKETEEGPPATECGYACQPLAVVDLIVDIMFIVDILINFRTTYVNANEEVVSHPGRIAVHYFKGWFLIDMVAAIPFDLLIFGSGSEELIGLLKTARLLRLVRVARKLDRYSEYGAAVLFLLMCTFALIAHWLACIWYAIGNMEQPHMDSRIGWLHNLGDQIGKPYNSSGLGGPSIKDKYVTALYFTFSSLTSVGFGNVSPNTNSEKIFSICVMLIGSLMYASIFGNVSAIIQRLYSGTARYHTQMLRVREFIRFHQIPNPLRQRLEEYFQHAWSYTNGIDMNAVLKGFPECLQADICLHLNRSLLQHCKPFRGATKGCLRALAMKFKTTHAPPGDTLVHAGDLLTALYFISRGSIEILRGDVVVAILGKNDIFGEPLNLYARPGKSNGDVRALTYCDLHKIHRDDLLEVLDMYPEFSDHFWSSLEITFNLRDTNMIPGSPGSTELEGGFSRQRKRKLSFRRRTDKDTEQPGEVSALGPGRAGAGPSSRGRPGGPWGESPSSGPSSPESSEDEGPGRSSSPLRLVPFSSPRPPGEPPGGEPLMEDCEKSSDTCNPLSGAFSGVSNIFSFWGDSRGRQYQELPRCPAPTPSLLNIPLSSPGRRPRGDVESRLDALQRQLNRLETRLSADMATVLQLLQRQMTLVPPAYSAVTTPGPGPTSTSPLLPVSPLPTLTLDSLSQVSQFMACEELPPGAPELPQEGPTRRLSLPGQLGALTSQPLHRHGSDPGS
row,Structure (SMILES),"hERG current change (%, negative = inhibition) at 10uM"
1,CCN(CC(=O)Nc1c(C(=O)OC)[nH]c2ccccc12)c1ccc2c(c1)OCO2,-17.4%
2,COCCNC(=O)/C(C#N)=C/c1ccc(C(=O)O)cc1,47.8%
3,Oc1c(Br)cc(Br)c(/C=N/n2c(-c3ccccc3)n[nH]c2=S)c1Br,12.5%
4,CCOC(=O)CSc1nc(C)[nH]c1[N+](=O)[O-],-1.45%
5,CCCNC(=O)C(=O)NCC1CCCN1CC (stereo not shown),10.1%
6,Cc1ccc(C(=O)N/C(=C\c2cn(C)c3ccccc23)C(=O)NCCCn2ccnc2)cc1,-7.74%
7,CCCCC(=O)Oc1cc(C)[nH]c(=O)c1[N+](=O)[O-],11.9%
8,COc1cccc(NC(=O)CN(C)C(=O)c2oc3c(ccc4ccccc43)c2C)c1,-0.74%
9,Cc1cc(-c2csc(NC(=O)c3ccc(=O)[nH]c3)n2)c(C)n1Cc1ccccc1,20.4%
10,CNC(=O)/C(C#N)=C/c1ccc(-c2ccc(Cl)cc2)o1,8.39%
11,Cc1ccccc1C(=O)N1CCN(c2ccc(NC(=O)c3ccc4c(c3)OCO4)cc2)CC1,-44.6%
12,CCN1CCN(S(=O)(=O)c2ccc3c(c2)NC(=O)CS3)CC1,19.9%
13,Cc1ccc(Cn2c(C)cc3c(c2=O)C(c2cccs2)C(C#N)=C(N)O3)cc1 (stereo not shown),15.8%
14,O=C(Cc1n[nH]c(=O)c2ccccc12)OCc1c(Cl)cccc1Cl,12.2%
15,CNC(=O)c1c(Br)cnn1-c1ccc(C)cc1,18.2%
16,CCOC(=O)N1CCN(C(=O)CSc2nnc(-c3c[nH]c4ccccc34)n2CCOC)CC1,11.3%
17,CCOC(=O)c1ccccc1NC(=O)Cn1cnc2c(nnn2-c2ccc(C)cc2)c1=O,4.73%
18,COCCn1c(C)c(C)c(S(=O)(=O)c2ccccc2)c1N,7.07%
19,N=C1SCC(=O)N1/N=C/c1ccccc1,12.2%
20,Cn1nc(C(=O)Nc2ccc(S(=O)(=O)N3CCCC3)cc2)ccc1=O,-8.6%
21,CC(OC(=O)CCC(=O)c1cccs1)C(=O)Nc1ccccc1[N+](=O)[O-] (stereo not shown),-2.34%
22,CCOC(=O)C1(CCc2ccccc2)CCN(Cc2ccc(O)cc2)CC1,-83.4%

row,Structure (SMILES),"hERG current change (%, negative = inhibition) at 10uM"
1,COc1ccc(CN2CC(C(=O)NCCCOC(C)C)CC2=O)cc1 (stereo not shown),0.406%
2,CCc1cccc(N(CC(=O)NCc2ccc(F)cc2)C(=O)c2csnn2)c1,-25.1%
3,COc1cccc(-c2n[nH]c(=S)n2Cc2ccco2)c1,8.9%
4,COc1ccc(OC)c2sc(N(CCN(C)C)C(=O)/C=C/c3cccs3)nc12.Cl,-43.6%
5,COc1cc2c(cc1OC)CN(CC(=O)Nc1ccc(C)c(C)c1)CC2,5.14%
6,Cc1cc(C)n2nc(Sc3ncccc3[N+](=O)[O-])nc2n1,19.7%
7,CCCCN(C(=O)CCC(=O)Nc1cc(C)on1)C(C(=O)NC(C)(C)C)c1cccc(OC)c1OC (stereo not shown),18.1%
8,O=C(NCc1cccnc1)c1ccc(NC(=O)c2cccc([N+](=O)[O-])c2)cc1,-19.2%
9,O=C(NCc1ccco1)C1CCCN(S(=O)(=O)c2cc(Cl)ccc2Cl)C1 (stereo not shown),0.994%
10,C/C(=N\NC(=O)C(O)(c1ccccc1)c1ccccc1)c1ccc(NC(=O)CCCC(=O)O)cc1,16.2%
11,CC(C)NC(=O)c1cc2c(s1)CCCC2,9.08%
12,CCN(CC)C(=O)Nc1ccc(C(=O)OC)cc1,-1.77%
13,Cc1ccccc1NC(=O)c1cccc(N2C(=O)C3CCC(C)CC3C2=O)c1 (stereo not shown),25.9%
14,COc1ccc(Br)cc1CN1CCN(C(=O)c2ccco2)CC1.O=C(O)C(=O)O,-34.9%
15,COc1ccc(OC)c(CCNC(=O)Cn2nc(C)c3c(C)n(-c4ccc(C)cc4)nc3c2=O)c1,-59%
16,CCOc1ccc(/C(C)=N/N2C(=O)C(CC(=O)Nc3ccc(OC)cc3[N+](=O)[O-])SC2=Nc2cccc(C)c2C)cc1 (stereo not shown),-7.5%
17,COc1ccc(NC(=O)C2(c3cccs3)CCOCC2)cc1,14.1%
18,COc1ccc(S(=O)(=O)NC(CC(=O)NCCc2ccccc2)c2ccco2)cc1 (stereo not shown),9.24%
19,CNC(=S)Nc1ccc(C)cc1,12.8%
20,COc1cccc(C(=O)Nc2cc(C(=O)NCCc3ccccc3)ccc2Cl)c1,11.4%
21,O=C(COC(=O)c1nc(Cl)ccc1Cl)Nc1ccc2[nH]c(=O)[nH]c2c1,-6.46%
22,c1cncc(-c2nnc3n2CCC3)c1,13.8%

row,Structure (SMILES),"hERG current change (%, negative = inhibition) at 10uM"
1,Cc1nc2ncnn2c(C)c1CCC(=O)N1CCN(Cc2ccccc2)CC1,-7.67%
2,CC1CCCN(C(=O)CN(C)S(=O)(=O)c2cccc3nsnc23)C1 (stereo not shown),-4.93%
3,Cc1cccc(Nc2nc(N)c([N+](=O)[O-])c(N3CC(C)CC(C)C3)n2)c1 (stereo not shown),16.1%
4,CCNC(=S)Nc1ccc(OC(F)(F)F)cc1,1.94%
5,COc1ccc(-c2nnc(SCC(=O)NCc3ccco3)o2)cc1,0.0381%
6,COc1ccccc1NC(=S)NC1CCCCCC1,-3.32%
7,O=C(CCCOc1ccccc1)NC(=S)Nc1ccccc1,8.74%
8,CC(C(=O)NCCc1ccc(Cl)cc1)n1c(=O)c2cccn2c2cccnc21 (stereo not shown),-6.64%
9,Cc1ccc(-c2nnc(SCC(=O)N/N=C/c3c(C)nn(-c4ccccc4)c3C)n2-c2ccc(C)cc2)cc1,4.21%
10,O=C(CSc1nccn(-c2ccc(F)c(Cl)c2)c1=O)NC1CCCC1,13.6%
11,COc1cc(NC(=O)Cn2ccsc2=N)cc(OC)c1.Cl,9.11%
12,O=C(NCc1ccco1)c1ccc(S(=O)(=O)N2CCCCCC2)cc1,-12.6%
13,Nc1ccc(SCC(=O)Nc2cccc([N+](=O)[O-])c2)cc1,-9.16%
14,Cc1cc(Cl)c(S(N)(=O)=O)cc1OCC(N)=O,5.39%
15,CCOC(=O)c1nnn(-c2nonc2N)c1CN1CCCCCC1,0.52%
16,COc1cc(F)c(C2=CC(=O)CC(C)(C)C2)cc1F,-5.26%
17,COc1ccc(NS(=O)(=O)/C=C/c2ccccc2)cc1,-0.961%
18,Oc1ccc(C2=Nn3c(nnc3-c3ccco3)SC2)cc1O,0.591%
19,Cc1ccc(S(=O)(=O)Nc2ccc(N(C)C)cc2)cc1,7.99%
20,Cc1ccc[n+](CC(=O)N2CCCc3ccccc32)c1.[Cl-],25.7%
21,CS(=O)(=O)N1CCC(C(=O)N2CCN(c3ccccc3F)CC2)CC1,14.2%
22,COC(=O)c1ccc(C(=O)N2CCCC(CNC(=O)c3ccccc3Cl)C2)cc1 (stereo not shown),3.62%

row,Structure (SMILES),"hERG current change (%, negative = inhibition) at 10uM"
1,Cc1csc(NC(=O)c2cc(C)nc3ccccc23)n1,-11.7%
2,CCSc1nc2nc(C)cc(C)n2n1,32.8%
3,Cc1cc(C)c(NC(=O)CN(c2ccccc2)S(=O)(=O)N(C)C)c(C)c1,-1.77%
4,C=C(C)C1CC=C(C)/C(=N\NC(=O)CNc2ccccc2OC)C1 (stereo not shown),14.4%
5,CCCCN(C(=O)CC1CCCC1)c1c(N)n(CCC)c(=O)[nH]c1=O,-0.622%
6,Cc1ccc(S(=O)(=O)Nc2ccccc2F)cc1C(=O)NNC(=O)c1ccccc1O,-6.2%
7,COc1ccc(C(=O)Nc2ccc(NS(=O)(=O)c3ccccc3)cc2)cc1OC,0.548%
8,CN(CC(=O)Nc1c(Cl)cccc1Cl)C(=O)CC1OC(=O)c2ccccc21 (stereo not shown),-2.8%
9,Cc1onc(-c2ccccc2Cl)c1C(=O)OCn1nnc2ccccc2c1=O,-5.09%
10,CC(=O)OCC(=O)Nc1ccc(Br)c(C)c1,8.49%
11,O=C1c2ccccc2NC(c2ccccc2Br)N1CCCN1CCOCC1 (stereo not shown),-15%
12,N#Cc1cccc(S(=O)(=O)Nc2c(NC3CCCCC3)c3ccccc3oc2=O)c1,-53.9%
13,O=C(NNC(=O)c1ccccc1F)c1ccc(-n2cncn2)c([N+](=O)[O-])c1,7.74%
14,COc1ccc(-c2nc(CS(=O)CC(=O)NCC3CCCO3)c(C)o2)cc1 (stereo not shown),-7.32%
15,OCC[C@H]1C[C@@H](O)[C@H](O)[C@]2(CCc3ccccc3CO2)O1,3.5%
16,COC(=O)C1CCN(C(=O)COC(=O)C2CCN(S(=O)(=O)c3c(Cl)cccc3Cl)CC2)CC1,-41.9%
17,c1ccc(COn2nnc3ccccc32)c(COn2nnc3ccccc32)c1,-21.3%
18,Cc1cc(NC(=O)NCC(F)(F)F)no1,10.5%
19,COc1ccc(CN(C)C(=O)CNC(=O)c2ccc3ccccc3c2)c(OC)c1,-14.1%
20,Cc1ccccc1NS(=O)(=O)c1ccc(C(=O)N2CCN(c3ccccc3O)CC2)cc1,7.73%
21,O=c1c2ccccc2cnn1Cc1n[nH]c(=S)n1-c1ccccc1,30.7%
22,COc1ccc(Cl)c(Cn2c(NCc3ccccn3)nc3c2c(=O)n(C)c(=O)n3C)c1,-20.3%
